# Data reported in patent publication US20210196654A1, “METHOD OF TREATING CONDITIONS” (Clexio Biosciences Ltd., priority 2019, published 2021).
# Test system: bone marrow cells of Crl:CD(SD) rats
# Assay: Mammalian erythrocyte micronucleus test
smiles,measurement,setting,value
"CN[C@]1(c2ccccc2Cl)CCCCC1=O [esketamine, (2S)-2-(2-Chlorophenyl)-2-(methylamino) cyclohexanone]",frequency of micronucleated polychromatic erythrocytes vs vehicle control,"female rats, any dose level (12.5, 25, 50 mg/kg/day)",No statistically significant increases
same,proportion of polychromatic erythrocytes vs vehicle control,"male rats, 37.5 and 75 mg/kg/day, p<0.05, within historical range, not considered biologically relevant",Statistically significant decreases
same,frequency of micronucleated polychromatic erythrocytes vs vehicle control,"male rats, any dose level (18.75, 37.5, 75 mg/kg/day)",No statistically significant increases
